We go through three compounds from US11155556B2, “Pyrimido-diazepinone kinase scaffold compounds and methods for treating PI3K-mediated disorders” (DANA-FARBER CANCER INSTITUTE, INC., priority 2016, dated 2021).

The test system of one assay is MOLT4 cells. As to the kind of experiment: CellTiter-Glo proliferation / cell viability assay, MOLT4. The format is cell-based. Particulars: Homo sapiens. As to the method: (§1) Proliferation assays were conducted in Jurkat or MOLT4 cell lines using Cell Titer Glo as described in product manual.
(§2) Cell viability assays were performed using CellTiter-Glo (Promega). Cells were grown in RPMI-10% FBS medium. 600 cells per well were seeded in a 96-well plate and then treated with eight doses of each compound in 3-fold dilution steps ranging from 10 um to 0.0046 uM for 3 days. Wells were imaged using a luminometer. IC50 were determined using Prism software. Data was normalized to a dimethyl sulfoxide (DMSO)-only control.

In a further assay the target is Aurora B (Homo sapiens (Human), UniProt Q96GD4). As to the kind of experiment: Z'-LYTE kinase assay, Aurora B. It is filed as biochemical. Particulars: for IC50: Z'LYTE assay format, ATP at Km; for selectivity over Aurora B: ratio of IC50s. As to the method:
(§3) The enzymatic activities against PI3K-α, PI3K-β, PI3K-γ and PI3K-δ were tested in ADAPTA assays. Activity against […] were tested in Z′-Lyte assays. All assays were performed with ATP concentrations of Km for each kinase. BRD4_1 binding was tested using an AlphaScreen assay. All protocols are available from Life Technologies.
(§4) The enzymatic activities against PI3K-α, PI3K-γ and PI3K-δ were tested in ADAPTA assays. Activity against […] were tested in Z′-Lyte assays. All assays were performed with ATP concentrations of Km for each kinase. BRD4_1 binding was tested using an AlphaScreen assay. All the protocols are available from Life Technologies.

A further assay deals with PI3K-α (Homo sapiens (Human), UniProt P42336). In words: ADAPTA kinase assay, PI3K-α. It is filed as biochemical. The note with it: for IC50: ADAPTA assay format, ATP at Km; for selectivity for PI3K-δ over PI3K-α: ratio of IC50s. As for the experimental part:
as §3, §4

The target in another assay is PI3K-β (Homo sapiens (Human), UniProt P42338). As to the kind of experiment: ADAPTA kinase assay, PI3K-β. It is filed as biochemical. Particulars: for IC50: ADAPTA assay format, ATP at Km; for selectivity for PI3K-δ over PI3K-β: ratio of IC50s. As for the experimental part: as §3, §4
Chain of UniProt P42338 (P42338 whole entry): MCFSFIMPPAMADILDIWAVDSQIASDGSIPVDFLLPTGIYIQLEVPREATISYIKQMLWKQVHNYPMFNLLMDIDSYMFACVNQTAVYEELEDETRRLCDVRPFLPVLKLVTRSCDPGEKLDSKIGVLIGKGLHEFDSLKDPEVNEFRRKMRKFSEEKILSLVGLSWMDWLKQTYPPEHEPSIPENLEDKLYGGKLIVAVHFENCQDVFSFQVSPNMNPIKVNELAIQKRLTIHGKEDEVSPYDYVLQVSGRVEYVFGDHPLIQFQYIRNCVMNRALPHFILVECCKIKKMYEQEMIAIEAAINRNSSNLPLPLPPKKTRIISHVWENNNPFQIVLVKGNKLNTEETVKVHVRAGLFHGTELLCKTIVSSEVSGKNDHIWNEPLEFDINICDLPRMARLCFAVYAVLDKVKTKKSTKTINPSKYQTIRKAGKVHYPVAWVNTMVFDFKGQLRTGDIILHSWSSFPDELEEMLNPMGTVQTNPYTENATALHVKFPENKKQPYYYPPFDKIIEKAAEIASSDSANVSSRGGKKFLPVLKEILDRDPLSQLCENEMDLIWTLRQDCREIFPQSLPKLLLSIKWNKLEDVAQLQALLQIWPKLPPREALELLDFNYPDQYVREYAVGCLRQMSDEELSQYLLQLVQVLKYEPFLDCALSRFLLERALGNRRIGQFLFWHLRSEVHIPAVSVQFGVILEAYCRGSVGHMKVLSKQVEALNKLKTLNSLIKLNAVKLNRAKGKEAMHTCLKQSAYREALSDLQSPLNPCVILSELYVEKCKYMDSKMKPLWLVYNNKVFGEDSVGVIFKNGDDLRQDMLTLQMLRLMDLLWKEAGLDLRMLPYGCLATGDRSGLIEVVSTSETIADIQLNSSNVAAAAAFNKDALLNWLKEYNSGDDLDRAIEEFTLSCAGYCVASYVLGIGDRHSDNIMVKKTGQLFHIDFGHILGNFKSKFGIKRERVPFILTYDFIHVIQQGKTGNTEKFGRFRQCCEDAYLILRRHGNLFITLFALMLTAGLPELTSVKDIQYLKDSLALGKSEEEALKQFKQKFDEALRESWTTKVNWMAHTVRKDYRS
Chain of UniProt P42338 (P27986 whole entry partner): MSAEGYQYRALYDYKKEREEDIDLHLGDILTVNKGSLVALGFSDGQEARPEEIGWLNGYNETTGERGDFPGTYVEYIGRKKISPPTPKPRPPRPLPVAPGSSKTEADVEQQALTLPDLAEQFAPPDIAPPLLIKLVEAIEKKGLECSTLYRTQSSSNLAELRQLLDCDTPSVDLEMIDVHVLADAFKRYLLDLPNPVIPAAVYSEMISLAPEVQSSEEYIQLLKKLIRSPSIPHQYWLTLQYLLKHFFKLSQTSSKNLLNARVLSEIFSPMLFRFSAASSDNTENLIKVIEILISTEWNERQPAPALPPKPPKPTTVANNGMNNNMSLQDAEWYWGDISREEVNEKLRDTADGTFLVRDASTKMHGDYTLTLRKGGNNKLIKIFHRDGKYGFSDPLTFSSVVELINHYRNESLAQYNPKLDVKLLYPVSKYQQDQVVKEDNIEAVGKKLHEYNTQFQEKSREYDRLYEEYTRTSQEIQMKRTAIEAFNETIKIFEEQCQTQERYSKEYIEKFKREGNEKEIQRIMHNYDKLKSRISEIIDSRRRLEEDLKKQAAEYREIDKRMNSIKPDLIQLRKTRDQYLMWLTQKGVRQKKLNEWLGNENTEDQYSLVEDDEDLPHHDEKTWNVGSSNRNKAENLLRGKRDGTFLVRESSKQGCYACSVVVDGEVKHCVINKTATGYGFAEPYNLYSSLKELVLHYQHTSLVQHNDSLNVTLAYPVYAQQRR
A further assay concerns human kinome. In words: KINOMEscan kinome profiling. The format is binding. The note with it: for selectivity score S10: KINOMEscan at 1 μM compound concentration. As to the method:
S10 was calculated from KINOMEscan data according to the formula;
Kinome profiling was performed using KinomeSCAN at compound concentration of 1 μM. Protocols are available from DiscovRX.

Another assay addresses BRD4_1 (Homo sapiens (Human), UniProt O60885). As to the kind of experiment: BRD4_1 AlphaScreen binding assay. As to the method: as §3, §4
Background: Alpha assays give light when donor and acceptor beads are brought close together.

In another assay the target is Aurora A (Homo sapiens (Human), UniProt O14965). As to the kind of experiment: Z'-LYTE kinase assay, Aurora A. The format is biochemical. The note with it: for IC50: Z'LYTE assay format, ATP at Km; for selectivity over Aurora A: ratio of IC50s. As for the experimental part:
The enzymatic activities against PI3K-α, PI3K-β, PI3K-γ and PI3K-δ were tested in ADAPTA assays. […] All assays were performed with ATP concentrations of Km for each kinase. BRD4_1 binding was tested using an AlphaScreen assay. All protocols are available from Life Technologies.
The enzymatic activities against PI3K-α, PI3K-γ and PI3K-δ were tested in ADAPTA assays. […] All assays were performed with ATP concentrations of Km for each kinase. BRD4_1 binding was tested using an AlphaScreen assay. All the protocols are available from Life Technologies.

The target in the next assay is PI3K-δ (Homo sapiens (Human), UniProt O00329). As to the kind of experiment: LCMS/MS cysteine labeling experiment with purified PI3K-δ protein. The source says:
Covalent inhibitors have been reported for PI3K-α that target a non-conserved cysteine unique to this isoform (Reference 14). […] Therefore we sought to remove this reactive functionality from our compounds, whilst maintaining on-target potency and kinome selectivity. Compounds containing an un-substituted sulfonamide nitrogen are equipotent against PI3K-β/γ and AuroraA/B. This holds in the context of both methylated and unmethylated core scaffold (Compounds 14, 16, 17). It has been shown that ortho-substitution adjacent to the hinge-binding motif can remove AuroraA/B activity from this scaffold (Reference 12). […] Gratifyingly compound 9; the propyl-amide analog of the initial hit, and compound 12 both maintained potent inhibition of PI3K-δ/γ.

For assay [1], the system named is PI3K-δ signaling (HMEC expressing CA-p110δ). In words: PI3K cellular signaling assay in isogenic HMEC lines (Western blot). It is filed as cell-based. Particulars: 10 nM concentration, FIG. 4C. As for the experimental part:
HMEC derivative cell lines were serum-starved for 3 hours, then treated with the indicated compounds at 0.01 μM, 0.1 μM, or 1 μM for 1 h. Cell lysates were prepared and subjected to Western blot assays with the indicated antibodies. Du, Duvelisib; Id, Idelalisib.
PI3K cellular signaling assays were performed as previously described (Reference 18).
HMEC derivative cells were cultured as described previously (Ni J, Liu Q, Xie S, et al. Functional characterization of an isoform-selective inhibitor of PI3K-p110beta as a potential anticancer agent. Cancer discovery. 2012; 2(5):425-433).
Western blot analysis was performed as previously described (Reference 1). Anti-phospho-AKT (Thr308) (#4056), anti-phospho-AKT (Ser473) (#4060), anti-AKT (#9272), anti-phospho-S6 ribosomal protein (Ser235/236) (#2211), anti-S6 ribosomal protein (#2217) antibodies were all from Cell Signaling Technology (Hanover, Mass.), and anti-α-tubulin antibody was from Sigma (Rockford, Ill.).
(In western blotting, separated proteins are transferred to a membrane and probed.)

A further assay concerns MV4:11 cells. As to the kind of experiment: CellTiter-Glo cell viability assay, MV4:11. Particulars: Homo sapiens, MV4-11, 72 h, 3 days, average of three replicates. It is filed as cell-based. As for the experimental part:
as §2
On the technique in general: Cellular ATP, detected with luciferase, serves as a proxy for viable cell number.

Assay [2] relates to patient-derived primary CLL cells. As to the kind of experiment: CellTiter-Glo cell viability assay, patient-derived primary CLL cells. The format is cell-based. Particulars: Homo sapiens. As for the experimental part:
The CellTiter-Glo assay (Promega) was used to determine the viability of cells from chronic lymphocytic leukemia (CLL) patients at baseline (primary human patient derived CLL cells), upon IgM stimulation, and after drug treatment. IgM stimulation was conducted using AffiniPure F(ab′)2 Fragment Goat Anti-Human IgM (Jackson ImmunoResearch). Cell viability results after drug treatment are presented in FIG. 7A (IgM-stimulated cells) and FIG. 7B (PBS control).

The next assay concerns Molm14 cells. As to the kind of experiment: CellTiter-Glo cell viability assay, Molm14. Particulars: Homo sapiens, MOLM-14, 72 h, 3 days, average of three replicates. The format is cell-based. As for the experimental part: as §2
A further assay concerns Jurkat cells. In words: CellTiter-Glo proliferation / cell viability assay, Jurkat. The format is cell-based. The note with it: Homo sapiens, 72 h, 3 days, average of three replicates. As for the experimental part: as §1, §2
The test system of the next assay is Loucy cells. As to the kind of experiment: CellTiter-Glo cell viability assay, Loucy. The format is cell-based. The note with it: 72 h, 3 days, average of three replicates. As for the experimental part:
as §2

Where [3] appears, read: MOLT-4, 72 h, cell viability, 3 days, average of three replicates, read-out: IC50 Molt4.

Read-outs that look alike come from different tables or passages of the source.

What is called IC50 is the concentration needed to halve the response being measured.

Chain of UniProt P42336 (P42336 whole entry): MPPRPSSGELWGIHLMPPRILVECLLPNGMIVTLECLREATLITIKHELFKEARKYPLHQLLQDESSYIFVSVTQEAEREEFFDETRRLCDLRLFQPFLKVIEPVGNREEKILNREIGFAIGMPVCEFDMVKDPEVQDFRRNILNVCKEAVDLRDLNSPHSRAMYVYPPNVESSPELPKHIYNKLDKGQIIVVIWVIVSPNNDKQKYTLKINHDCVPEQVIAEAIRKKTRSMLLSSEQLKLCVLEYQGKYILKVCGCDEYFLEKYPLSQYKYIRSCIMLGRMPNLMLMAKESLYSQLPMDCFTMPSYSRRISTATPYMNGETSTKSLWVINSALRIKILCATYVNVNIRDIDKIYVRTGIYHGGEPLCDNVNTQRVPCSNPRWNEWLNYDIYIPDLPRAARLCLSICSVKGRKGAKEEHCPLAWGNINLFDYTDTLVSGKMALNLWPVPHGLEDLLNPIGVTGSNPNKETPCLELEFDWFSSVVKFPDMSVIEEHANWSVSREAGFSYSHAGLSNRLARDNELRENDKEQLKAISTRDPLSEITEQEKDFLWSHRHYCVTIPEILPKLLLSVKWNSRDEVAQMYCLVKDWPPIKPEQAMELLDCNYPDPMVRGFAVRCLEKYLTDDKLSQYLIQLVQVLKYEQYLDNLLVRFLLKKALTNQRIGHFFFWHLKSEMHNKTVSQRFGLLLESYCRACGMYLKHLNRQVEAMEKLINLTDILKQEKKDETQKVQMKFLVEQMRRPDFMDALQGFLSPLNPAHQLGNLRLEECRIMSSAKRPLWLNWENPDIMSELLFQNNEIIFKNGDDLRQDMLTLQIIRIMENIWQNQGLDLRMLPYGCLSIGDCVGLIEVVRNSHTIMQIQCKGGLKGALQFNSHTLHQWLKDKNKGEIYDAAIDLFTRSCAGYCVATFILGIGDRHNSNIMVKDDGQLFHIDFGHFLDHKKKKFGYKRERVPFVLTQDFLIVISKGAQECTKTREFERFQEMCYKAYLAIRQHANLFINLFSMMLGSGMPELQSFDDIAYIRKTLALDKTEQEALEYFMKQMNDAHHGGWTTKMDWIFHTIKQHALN
Chain of UniProt P42336 (P27986 whole entry partner): as the sequence (P27986 whole entry partner) above
Chain of UniProt O14965 (O14965 whole entry): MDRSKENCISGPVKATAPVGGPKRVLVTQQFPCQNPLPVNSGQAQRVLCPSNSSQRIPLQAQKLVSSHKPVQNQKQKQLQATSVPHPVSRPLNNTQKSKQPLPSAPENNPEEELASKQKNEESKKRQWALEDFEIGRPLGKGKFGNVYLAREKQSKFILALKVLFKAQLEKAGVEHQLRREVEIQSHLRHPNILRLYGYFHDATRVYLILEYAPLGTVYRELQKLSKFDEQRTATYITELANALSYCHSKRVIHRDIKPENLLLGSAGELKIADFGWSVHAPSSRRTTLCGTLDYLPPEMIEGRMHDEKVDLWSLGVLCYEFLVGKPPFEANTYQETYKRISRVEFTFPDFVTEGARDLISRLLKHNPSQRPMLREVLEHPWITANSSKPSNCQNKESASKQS
Chain of UniProt Q96GD4 (Q96GD4 whole entry): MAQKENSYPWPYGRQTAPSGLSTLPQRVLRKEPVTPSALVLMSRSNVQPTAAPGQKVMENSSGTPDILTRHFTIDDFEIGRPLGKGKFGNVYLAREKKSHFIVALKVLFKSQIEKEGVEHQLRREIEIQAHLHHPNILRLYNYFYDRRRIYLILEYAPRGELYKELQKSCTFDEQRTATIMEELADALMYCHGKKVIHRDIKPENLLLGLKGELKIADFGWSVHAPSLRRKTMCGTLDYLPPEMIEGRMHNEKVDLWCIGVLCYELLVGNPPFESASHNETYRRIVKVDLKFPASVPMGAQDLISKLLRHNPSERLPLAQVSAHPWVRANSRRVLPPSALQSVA

As for `C=CC(=O)N1CCN(S(=O)(=O)c2cccc(Nc3ncc4c(n3)N(C)c3ccc(C)cc3C(=O)N4C)c2)CC1` [Compound 1, 2-((3-((4-acryloylpiperazin-1-yl)sulfonyl)phenyl)amino)-5,8,11-trimethyl-5,11-dihydro-6H-benzo[e]pyrimido[5,4-b][1,4]diazepin-6-one], the IC50 with MOLT4 cells (MOLT-4, T-ALL cell line, screening campaign, read-out: IC50 MOLT4 cells (antiproliferative activity)) was determined as 0.033 µM. Further, on Aurora B, inhibition was half-maximal at 0.12 µM (IC50) and the “selectivity over Aurora B” value turned out to be 60 fold. At PI3K-α, the IC50 was 0.053 µM and the “selectivity for PI3K-δ over PI3K-α” value is listed as 26 fold. At PI3K-β, it took 0.544 µM to reach half-maximal inhibition (IC50) and the “selectivity for PI3K-δ over PI3K-β” value is on record as 272 fold. Moreover, in the assay on human kinome (KINOMEscan at 1 μM), the “inhibition of other targets in the PI3K pathway (Akt, DNA-PK, BTK, mTOR)” value is on record as “not inhibited” and the “inhibitory effects on PIP5K2C (PIP4K-γ)” value is listed as “some inhibitory effects”. Also, in the assay with human kinome, the “selectivity score S10” value is 0.013. Also, the half-inhibitory concentration (IC50) at BRD4_1 is 6 µM. At Aurora A, half-maximal inhibition (IC50) was put at 0.059 µM and the “selectivity over Aurora A” value came out at 30 fold. Moreover, the “non-specific cysteine labeling of PI3K-δ” value at PI3K-δ is on record as “no non-specific cysteine labeling was occurring”.

For `CCC(=O)N1CCN(S(=O)(=O)c2cccc(Nc3ncc4c(n3)N(C)c3ccc(C)cc3C(=O)N4C)c2)CC1` [Compound 9, 5,8,11-trimethyl-2-((3-((4-propionylpiperazin-1-yl)sulfonyl)phenyl)amino)-5,11-dihydro-6H-benzo[e]pyrimido[5,4-b][1,4]diazepin-6-one], the IC50 with MOLT4 cells (setting [3]) came to 1.2 µM; on Aurora B, 0.117 µM; at PI3K-α, 0.07 µM; at PI3K-β, 0.61 µM; in the assay with MV4:11 cells it was 0.96 µM; at BRD4_1, 18.8 µM. Besides, the concentration for half-maximal inhibition (IC50) in assay [2] is 3 µM; on Aurora A, 0.11 µM; in the assay on Molm14 cells it was 0.61 µM; in the assay on Jurkat cells, 1.6 µM; in the assay with Loucy cells it was 0.72 µM. Besides, at Aurora B, the “selectivity over Aurora B” value stood at 59 fold. The “selectivity for PI3K-δ over PI3K-α” value on PI3K-α was determined as 35 fold. The “selectivity for PI3K-δ over PI3K-β” value at PI3K-β is given as 305 fold. For the same compound, the “inhibition of PI3K-δ signaling (AKT and S6RP phosphorylation)” value in [1] is “comparable inhibition of, and selectivity for, PI3K-δ signaling”. Further, in the assay on human kinome, the “selectivity score S10” value is given as 0.010. For the same compound, on Aurora A, the “selectivity over Aurora A” value is 55 fold.

`Cc1ccc2c(c1)C(=O)N(C)c1cnc(Nc3cccc(S(=O)(=O)N4CCC(O)CC4)c3)nc1N2C` [Compound 12, 2-((3-((4-hydroxypiperidin-1-yl)sulfonyl)phenyl)amino)-5,8,11-trimethyl-5,11-dihydro-6H-benzo[e]pyrimido[5,4-b][1,4]diazepin-6-one]: the IC50 in the assay on MOLT4 cells (setting [3]) amounted to 1.3 µM; against Aurora B, 0.152 µM; at PI3K-α it was 0.055 µM; against PI3K-β, 4.75 µM; with MV4:11 cells, 0.62 µM; on BRD4_1, 10.8 µM. The half-inhibitory concentration (IC50) is over 10 µM in [2]; 0.151 µM against Aurora A; 1 µM in the assay with Molm14 cells; 1.4 µM in the assay on Jurkat cells; 0.35 µM in the assay with Loucy cells. Further, on Aurora B, the “selectivity over Aurora B” value was determined as 72 fold. The “selectivity for PI3K-δ over PI3K-α” value at PI3K-α is on record as 26 fold. In addition, the “selectivity for PI3K-δ over PI3K-β” value at PI3K-β stood at 2262 fold. Besides, the “inhibition of PI3K-δ signaling (AKT and S6RP phosphorylation)” value in assay [1] was “comparable inhibition of, and selectivity for, PI3K-δ signaling”. Moreover, the “selectivity score S10” value in the assay with human kinome was found to be 0.008. In addition, the “selectivity over Aurora A” value on Aurora A came out at 72 fold.
